Measurements published in PubChem BioAssay AID686971 (National Center for Advancing Translational Sciences (NCATS), 2013).
In all, about 360,000 compounds went through this assay and about 7,500 (2.1%) were called active. Inconclusive means that the source gave no clear call. Such entries were picked first, then a sample of the others. The call rests on the fitted dose curve; in most records, active means well fitted cell-killing curve with a large enough effect; inconclusive means small, poorly fitted or top-dose-only effect, or effect the other way, or another doubt; inactive means no such curve, though single readings can be large or run the other way. No potency is given beside an inconclusive call; the fits are too rough.

assay: qHTS for induction of synthetic lethality in tumor cells producing 2HG: qHTS for the HT-1080-IDH1KD cell line; settings: HT-1080 IDH1 knockdown viability, ATP luminescence, 48 h; activity, negative = toxicity: at 46.1 µM (top of the series) unless noted;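 on activity, negative = toxicity: 0% = DMSO wells and -100% = cell-free medium wells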
How it was run: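 Viability of IDH1-knockdown HT-1080 fibrosarcoma cells was assessed by CellTiter-Glo after 48 h at 37 °C with titrated compound; concentration-effect curves were classified by fit quality and response size.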
Potency means the concentration at half of the fitted maximal effect; tags describe the fitted curve by direction and shape.

SMILES | Potency | activity, negative = toxicity
Cc1cc2ccccc2n1CCNC(=O)c1ccc(S(=O)(=O)N2CCOCC2)cc1 | inconclusive [cytotoxic, single point] | 
Cc1ccc(CNCc2cc3c(C(C)(C)C)nn(-c4ccccc4)c3[nH]c2=O)cc1 | inconclusive [cytotoxic, partial curve, poor fit] | 
CCc1sc(C(=O)Nc2ccc(N3CCOCC3)cc2)cc1C | inconclusive [cytotoxic, partial curve, poor fit] | 
Cc1ccc(NC(=O)COC(=O)c2c[nH]c3ccccc23)cc1C | inactive | 
COc1ccc(-c2nn(-c3ccccc3)cc2/C=C/C(=O)OCC(=O)Nc2cccc(C#N)c2)cc1 | inconclusive [cytotoxic, partial curve] | 
O=C(Nc1ccc2[nH]c(=O)[nH]c2c1)c1ccc([N+](=O)[O-])o1 | inconclusive [cytotoxic, single point] | 
Cc1ccc(NC(=O)CSc2nc(-c3ccco3)cc(C(F)(F)F)n2)cc1C | active: 2.51 µM | 
CC1=Nc2ccccc2N=C(NC(=O)c2ccccc2)C1c1ccc(Cl)cc1 (stereo unspecified) | inactive | 
Cc1cc(=O)oc2cc(NC(=S)NNC(=O)c3c(Cl)cnn3C)ccc12 | inactive | 
ON=C1/C(=N\O)CC2(C/C1=N/O)OCCO2 | inconclusive [cytotoxic, single point] | 
C(=C\c1ccccc1)/CN1CCN(C(c2nnnn2-c2ccc3c(c2)OCCO3)C2CC2)CC1 (stereo unspecified) |  | inconclusive: -30.7% [cytotoxic]
FC(F)(F)c1cc(CCN2CCNC[C@H]2Cc2cccc3ccccc23)cc(C(F)(F)F)c1 | inconclusive [cytotoxic, single point] | 
COC(c1ccccc1)c1nnc(CCC(=O)N(C)Cc2cccc(-n3cccn3)c2)o1 (stereo unspecified) | inactive | 
O=C(O)c1ccc(N=Nc2c(O)ccc3ncccc23)cc1 | active: 23.1 µM | 
Cc1ccccc1C(NC(=O)C1CCN(Cc2ccc(Oc3ccccc3)cc2)CC1)c1ccsc1 (stereo unspecified) | inconclusive [cytotoxic, single point] | 
c1ccc(-c2nc3nonc3c3nc4ccccc4n23)cc1 | inconclusive [cytotoxic, single point] | 
COc1ccc(-c2cc3nc(C)c(CCC(=O)NC(C)CCc4ccco4)c(C)n3n2)c(OC)c1 (stereo unspecified) | inconclusive [cytotoxic, single point] | 
O=C(NC(CO)C(O)c1ccc([N+](=O)[O-])cc1)C(Cl)Cl (stereo unspecified) | inactive | 
CC(CCc1ccc(O)cc1)NCCC(c1ccccc1)c1ccccc1 (stereo unspecified) | active: 20.6 µM | 
CC(=O)N1N=C(c2cccc(NS(=O)(=O)c3ccc(C)cc3)c2)CC1c1ccco1 (stereo unspecified) | inconclusive [cytotoxic, single point] | 
CC1(C)C2CCC1(CS(=O)(=O)Nc1ccc(S(=O)(=O)N3CCCCC3)cc1)C(=O)C2 (stereo unspecified) | inactive | 
COc1ccccc1NC(=O)CN(c1ccc(C23CC4CC(CC(C4)C2)C3)cc1)S(C)(=O)=O | inconclusive [cytotoxic, single point] | 
Cc1ccccc1OC1(C)CCN(Cc2ccc(-c3ccccn3)cc2)C1 (stereo unspecified) | inconclusive [cytotoxic, single point] | 
O=C(Cc1coc2ccc3ccccc3c12)NC1CCCc2ccccc21 (stereo unspecified) | inconclusive [cytotoxic, partial curve] | 

SMILES | Potency | activity, negative = toxicity
COC(=O)c1ccccc1NC(=O)C(C)c1ccc([N+](=O)[O-])cc1 (stereo unspecified) | inactive | 
Cc1cc(C)c(S(=O)(=O)Oc2ccccc2[N+](=O)[O-])c(C)c1 | inconclusive [cytotoxic, single point] | 
O=C(NCc1ccccn1)C(=O)N/N=C/c1ccccc1O | inconclusive [cytotoxic, partial curve] | 
Cc1onc(-c2ccccc2Cl)c1C(=O)N1CCC(Cc2ccccc2)CC1 | active: 18.4 µM | 
O=C(Nc1ccc(OCc2ccccc2)cc1)Nc1ccccc1C(=O)NCCCN1CCOCC1 | inconclusive [cytotoxic, partial curve] | 
O=C(O)c1cccnc1Sc1ccc(Cl)cc1 |  | inconclusive: -12.6% [cytotoxic]
CCN(CC)C(=O)c1cccc(-c2csc(C(C)(O)c3cccc(OC)c3)n2)c1 (stereo unspecified) | inconclusive [cytotoxic, single point] | 
Cc1ccccc1-n1ncc2c(SCC(=O)NCc3cccs3)ncnc21 | active: 20.6 µM | 
COc1cc(C(O)c2nc(-c3ccncc3)cs2)ccc1F (stereo unspecified) | inconclusive [cytotoxic, single point] | 
O=C(Nc1cccnc1)c1ccc(Cl)c([N+](=O)[O-])c1 | inconclusive [cytotoxic, single point] | 
CC1(C(=O)NC2CCCC2)CCC(=O)N1Cc1ccc2c(c1)OCO2 (stereo unspecified) | inconclusive [cytotoxic, single point] | 
COc1cc(C(=O)NC2CCN(C)CC2)ccc1Nc1ncc2c(n1)N(Cc1ccccc1)CCC(=O)N2C | inconclusive [cytotoxic, single point] | 
O=C(c1ccc(Cl)cc1)c1ccc(OCC(O)CN2CCCCC2)cc1 (stereo unspecified) | inconclusive [cytotoxic, single point] | 
Cn1cc(C(=O)C(=O)N2CCCc3ccccc32)c2ccccc21 | inconclusive [cytotoxic, partial curve] | 
Cc1cccc(-c2cnc3cccnn23)c1 | inactive | 
O=C(N/N=C/c1ccccc1Br)c1cccc(S(=O)(=O)N2CCOCC2)c1 | inactive | 
O=[N+]([O-])c1ccc(C=Nc2ccc(Cl)cc2Cl)s1 | active: 11.2 µM | 
CC(C)(C)NCC(O)(c1ccc(Cl)cc1)c1ccc(Cl)cc1 | active: 14.6 µM | 
O=C(Nc1ccccc1O)c1ccc(NC(=O)C2CC2)cc1 | inconclusive [cytotoxic, partial curve] | 
Cc1ccc(NNC(=O)c2ccno2)c(C)c1 | active: 7.31 µM | 
CC1(C)CC(=O)CC2(C1)NCC(c1ccccc1)c1c2[nH]c2ccccc12 (stereo unspecified) | inactive | 
COC(=O)c1ccc(O)cc1 | inconclusive [rising, single point] | 
COc1ccccc1N1CCN(C(=O)COc2ccc(Cl)cc2Br)CC1 | inconclusive [cytotoxic, partial curve] | 
O=C(Nc1ccc(Cl)cc1)Nc1ccc(N2CCCC2)c(S(=O)(=O)Nc2ccccc2Cl)c1 | active: 6.51 µM | 

SMILES | Potency | activity, negative = toxicity
Cc1ccccc1Nc1c(-c2ccncc2)nc2ccc(Cl)cn12 | inactive | 
COc1ccc2c(c1)nc(SCC(=O)c1cccs1)n2C | inconclusive [cytotoxic, single point] | 
COc1ccc(CCNCC2C(Oc3ccc(Cl)cc3)C(=O)N2c2ccccc2C)cc1OC (stereo unspecified) | inconclusive [cytotoxic, single point] | 
Cc1ccc2nc(-c3ccc(NC(=S)NC(=O)C(C)C)cc3)sc2c1 | active: 1.58 µM | 
O=C(Nc1ccccc1)N1CCN(S(=O)(=O)c2ccccc2)CC1 |  | inconclusive: -5.87% [cytotoxic]
Cc1ccc(-n2[nH]c(C)c(/C=N/N3C(=O)c4cccc5cccc(c45)C3=O)c2=O)cc1 | inconclusive [cytotoxic, partial curve] | 
COc1cc(C)ccc1OCCOCCOc1cccc2ccc(C)nc12 | inconclusive [cytotoxic, single point] | 
CNc1nc(-c2ccc3c(c2)CCN3C(=O)c2cccc(F)c2)cs1 | inconclusive [cytotoxic, single point] | 
CCCCCCCCCNC(=O)[C@H](NC(=O)COc1ccccc1)[C@@H]1NC(C(=O)OC)C(C)(C)S1 (stereo partly specified) | inactive | 
COc1c2ccc(C(=O)NCc3cc(C(F)(F)F)cc(C(F)(F)F)c3)cc2nn1C | inconclusive [cytotoxic, single point] | 
CCOc1cc(/C=N/NC(=O)Cn2nc([N+](=O)[O-])cc2C)cc(Br)c1OCc1ccccc1C | inconclusive [cytotoxic, partial curve] | 
CN(O)/C=c1/ccc2c(n1)C(=O)C=CC=2 | inconclusive [cytotoxic, single point] | 
CCOC(=O)c1ccc(NC(=O)CN2C(=O)NC3(CCC(C)CC3)C2=O)cc1 (stereo unspecified) | inconclusive [cytotoxic, single point] | 
O=C1C(Cc2c[nH]c3ccccc23)NC(=S)N1Cc1ccccc1 (stereo unspecified) |  | inconclusive: -24.5% [cytotoxic]
CCCc1ccc2oc(C(=O)NCCN3CCCC(O)C3)c(C)c2c1 (stereo unspecified) | active: 23.1 µM | 
CC(CNC(=O)c1cc(COc2ccc3ncccc3c2)on1)c1ccccc1 (stereo unspecified) | inconclusive [cytotoxic, single point] | 
Cc1nc(Sc2ccccc2)c(C#N)c(C)c1[N+](=O)[O-] | inconclusive [cytotoxic, single point] | 
O=C(N/N=C(\CC(=O)c1cccs1)C(F)(F)F)c1ccncc1 | inconclusive [cytotoxic, single point] | 
Cc1ccc(Sc2ccc(N)cn2)cc1 | inactive | 
CCCCCCOc1ccc(C(=O)O)cc1 | inactive | 
COc1ccc(CC(N)c2csc(Nc3ncccn3)n2)cc1 (stereo unspecified) | inconclusive [cytotoxic, single point] | 
Cc1cc2ccccc2nc1SCC(=O)NC1CCCC1 | inactive | 
CC(=O)N1CCCc2cc(S(=O)(=O)N3CCCC(C(=O)N4CCN(c5cc(C)ccc5C)CC4)C3)ccc21 (stereo unspecified) | inconclusive [cytotoxic, single point] | 
